Among all 2,100 compounds or so, about 1,100 (52%) were called active. So high a share suggests a set chosen from earlier hits. This list was built around the results that the source calls inconclusive (neither active nor inactive); the mix of calls is not that of the screen. Calls follow the shape of the dose curve; as a rule, active = well fitted inhibition curve with a large enough effect; inconclusive = small, poorly fitted or top-dose-only effect; inactive = no such curve, though single readings can be large or run the other way. No potency is given beside an inconclusive call; the fits are too rough.
These compounds were tested against DNA dC->dU-editing enzyme APOBEC-3F (Homo sapiens) (UniProt Q8IUX4) (assay: qHTS for inhibitors of Vif-A3F interactions: Cherry picks counterscreen). Conditions: HeLa A3F-eYFP/Vif cells, eYFP fluorescence, 24 h; series mostly up to 46.1 µM; activity, negative = inhibitor: at the top concentration.
UniProt Q8IUX4, sequence (Q8IUX4 whole entry, looked up): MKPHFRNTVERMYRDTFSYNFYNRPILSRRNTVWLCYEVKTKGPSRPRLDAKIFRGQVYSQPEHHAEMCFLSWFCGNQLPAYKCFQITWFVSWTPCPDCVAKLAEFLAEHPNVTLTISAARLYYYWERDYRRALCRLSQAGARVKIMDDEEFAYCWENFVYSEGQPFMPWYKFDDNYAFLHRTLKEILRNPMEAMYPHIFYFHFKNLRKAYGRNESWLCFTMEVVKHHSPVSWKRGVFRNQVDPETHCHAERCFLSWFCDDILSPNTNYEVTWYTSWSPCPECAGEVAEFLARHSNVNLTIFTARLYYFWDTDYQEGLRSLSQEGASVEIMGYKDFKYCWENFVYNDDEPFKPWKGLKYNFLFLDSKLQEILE
How it was run: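 HeLa cells stably expressing A3F-eYFP and Vif, cultured overnight, then treated 24 h at 37 degrees C with compounds at several concentrations; yellow fluorescence (488 nm Ex/500-530 nm Em) imaged on Acumen; MG132 positive control.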
In the case of `NC(=S)N/N=C/c1cccc(O)c1O`, the “activity, negative = inhibitor” value is reported as inactive: -9.52%.
`N#C/C(=C\c1ccc(N2CCOCC2)o1)C(=O)NCCc1ccccc1` was tested, and the “activity, negative = inhibitor” value was inactive: 39.2%.
With `COc1ccccc1C(=O)NC(=S)Nc1ccc(NC(=O)c2ccco2)cc1` the Potency was inconclusive [inhibitor, partial curve, poor fit].
In the case of `COc1ccc(O)c(C(=O)c2coc(=N)c(C(=O)Nc3ccc(SC(F)F)cc3)c2)c1`, the Potency is reported as inconclusive [inhibitor, single point].
In the case of `CCn1c(CNC(=O)c2cc(OC)c(OC)c(OC)c2)cc2cc(C)ccc21`, the “activity, negative = inhibitor” value is reported as inactive: 13.7%.
In the case of `COc1cc(C2c3cc4c(cc3C(OC3OC5COC(c6cccs6)OC5C(O)C3O)C3COC(=O)C23)OCO4)cc(OC)c1O` (configuration not stated), the Potency is reported as active: 11.2 µM.
In the case of `CC(=O)Nc1cccc(-c2ccnc3c2CC(C)(C(=O)NCc2cccs2)O3)c1` (configuration not stated), the Potency is reported as active: 4.44 µM.
For `COc1cc(Br)c(/C=C(\C#N)c2nc3ccccc3[nH]2)cc1OC`, the Potency was inconclusive [inhibitor, single point].
With `O=C1/C(=C/c2ccc(O)cc2)SC(=S)N1Cc1cccnc1` the “activity, negative = inhibitor” value was inactive: 8.88%.
With `CC1=CC(C)(C)Nc2ccc(OC(=O)c3ccco3)cc21` the Potency was inconclusive [inhibitor, single point].
In the case of `S=c1[nH]cnc2sc(-c3ccccc3)cc12`, the “activity, negative = inhibitor” value is reported as inactive: 8.41%.
In the case of `C=CCOc1ccc2nc(NC(=O)OC)[nH]c2c1`, the Potency is reported as active: 2.5 µM.
For `O=C(C[n+]1cccc2cc(Cl)ccc21)c1ccc(I)cc1`, the Potency was inconclusive [inhibitor, single point].
In the case of `CCOc1ccc(/C=N/NC(=O)c2cc3c(OC)cccc3[nH]2)cc1`, the Potency is reported as inconclusive [inhibitor, single point].
For `CCC(=Nc1ccccc1O)C1=C(O)CC(c2ccccc2)CC1=O` (configuration not stated), the “activity, negative = inhibitor” value was inactive: -15.7% [at 36.9 µM].
`CC12CC3CC(C)(C1)CC(C(=O)NC(=S)N1CCOCC1)(C3)C2` was tested, and the “activity, negative = inhibitor” value was inactive: -2.22% [at 36.9 µM].
`CCOc1ccccc1C(=O)Nc1ccsc1C(=O)OC` was tested, and the Potency was inconclusive [inhibitor, full curve].
With `CCOC(=O)c1c(C)oc2ccc(N(C(=O)c3ccncc3)S(=O)(=O)c3ccc(Br)cc3)cc12` the Potency was inconclusive [inhibitor, single point].
With `Cc1nc(CSc2nsc(/C=C/N(C)C)c2C#N)cs1` the “activity, negative = inhibitor” value was inactive: 9.44% [at 36.9 µM].
With `CC(=O)n1cc(/C=N/NC(=O)c2sc(C)nc2C)c2ccccc21` the Potency was inconclusive [inhibitor, single point].
In the case of `CN(C)CCNc1ccc2ncn3c4ccc(O)cc4c(=O)c1c23`, the Potency is reported as active: 20.6 µM.
With `Cc1sc2ncnc(N=Nc3c(O)[nH]c4ccccc34)c2c1C` the Potency was inconclusive [inhibitor, partial curve].

From PubChem BioAssay AID651815 (National Center for Advancing Translational Sciences (NCATS), 2012)
% is scaled to controls: 0 for no effect and ±100 for the full control effect; potency is read from the fitted curve at half-maximal effect; tags tell the direction and shape of the fitted curve.
Also: nearly all actives have a fitted effect of over 65% in size.
